The results in this text go back to paper PMC10480186.

The target in the test is DNAJB1, P25685. Description: dynamic light scattering; 30 µM protein in 20 mM Hepes-KOH pH 7.6, 50 mM KCl, 2 mM DTT; volume-based size distributions; the wt also with 300 mM NaCl, 5% 1,6-hexanediol or at 40 °C, which shift it to smaller particles; self-association: dimer and dimers to larger oligomers. The note with it: remark: other sources report otherwise.

B1: DNAJB1 (natural protein)
chain: MGKDYYQTLGLARGASDEEIKRAYRRQALRYHPDKNKEPGAEEKFKEIAEAYDVLSDPRKREIFDRYGEEGLKGSGPSGGSGGGANGTSFSYTFHGDPHAMFAEFFGGRNPFDTFFGQRNGEEGMDIDDPFSGFPMGMGGFTNVNFGRSRSAQEPARKKQ[left out - about 150 residues]PERIPQTSRTVLEQVLPI
As for B1, the stoichiometry N came to 2.
